In PubChem BioAssay (NCI):
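96-well plates; 48 h exposure; 5 concentrations. Endpoints by linear interpolation between flanking doses. Not reached: highest tested concentration assigned. GI50 is the concentration that inhibits growth by half. TGI: total growth inhibition.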

System: NCI-H322M lung
Assay: inhibition of tumour cell growth, NCI panel, 48 h

**Q.** `O=c1oc2c/c(=C\c3ccccc3)c(=O)c3cccc1c3-2` was tested. Which TGI did it give?
**A.** > 100 µM

**Q.** Which TGI does the source give for `COc1cc2cc3c4c(cc(OC)c(OC)c4c2cc1OC)CCN3C(=O)N(C)C` here?
**A.** > 100 µM

**Q.** Which TGI does the source give for `COc1ccc2c(c1)CC1(O)COc3cc(OC)ccc3C1O2` (stereo not drawn) here?
**A.** > 100 µM

**Q.** Which results are given for `COc1cc(F)cc([C@@H](CO)NC(=O)[C@@H](C)N2Cc3ccc(-c4nc(NC5CCOCC5)ncc4Cl)cc3C2=O)c1`?
**A.** GI50: 0.0589 µM; TGI: 97.5 µM

**Q.** With `O=C1[C@H]2ON(c3ccccc3)C(c3ccccc3F)[C@H]2C(=O)N1c1ccc(Cc2ccc(N3C(=O)[C@@H]4ON(c5ccccc5)C(c5ccccc5F)[C@@H]4C3=O)cc2)cc1` (stereo partly drawn) as the molecule, how does the TGI read?
**A.** > 100 µM

**Q.** Which GI50 does the source give for `Cc1cccc(Cl)c1NC(=O)c1cnc(Nc2cc(N3CCOCC3)cc(N3CCOCC3)c2)s1` here?
**A.** 0.0426 µM

**Q.** What about the TGI of the same molecule?
**A.** 1.79 µM

**Q.** With `COc1ccc(-c2nnc(-c3c(C)n(C)n(-c4ccccc4)c3=O)o2)cc1` as the molecule, how does the TGI read?
**A.** > 100 µM

**Q.** How did the TGI turn out when `CCCCN=C(NC#N)N(Cc1ccccc1)Cc1ccccc1` was run?
**A.** > 100 µM

**Q.** With `COc1cc2c(cc1OC)-c1ccc3cc4c(cc3c1N(CCN(C)C)C2)OCO4` as the molecule, how does the GI50 read?
**A.** 1.61 µM

**Q.** What about the TGI of the same molecule?
**A.** 5.23 µM

**Q.** `COc1ccc(/C(Cl)=C(\C=O)c2ccccc2)cc1OC` was tested. Which TGI did it give?
**A.** > 100 µM

**Q.** For `COC(=O)c1c(O)ccc2c1c1c(n2Cc2ccccn2)C(=O)c2ccccc2C1=O`, which TGI is on record?
**A.** > 100 µM

**Q.** How did the TGI turn out when `COc1ccc(-c2nnc(-c3ccncc3)o2)cc1` was run?
**A.** > 100 µM

**Q.** With `Cc1ccc(S(=O)(=O)C2c3nc4ccccc4cc3-c3nc4ccccc4nc32)cc1` (stereo not drawn) as the molecule, how does the TGI read?
**A.** > 100 µM

**Q.** How did the TGI turn out when `O=c1nc(NC(c2ccccc2)(c2ccccc2)c2ccccc2)ccn1CCO` was run?
**A.** > 100 µM

**Q.** Which TGI does the source give for `CC1(C)OCC(COC(=O)NCn2cc(-c3ccccc3)nn2)O1` (stereo not drawn) here?
**A.** > 100 µM

**Q.** With `O=c1cc(-c2ccccc2)[nH]c2c(Cl)cccc12` as the molecule, how does the TGI read?
**A.** > 100 µM

**Q.** Which TGI does the source give for `Cc1ccc(C(=O)C2=CN=C3C(=O)N(c4ccccc4)N(C)C3(C)C2=N)cc1` (stereo not drawn) here?
**A.** > 100 µM

**Q.** For `Cc1oncc1NC1=CC(=O)C(=O)c2ccccc21`, which TGI is on record?
**A.** 38.4 µM

**Q.** `COc1ccc(SC2c3ccc(C)cc3Oc3nc(N)c(C#N)c(N)c32)cc1` (stereo not drawn) was tested. Which GI50 did it give?
**A.** 1.67 µM

**Q.** And the TGI?
**A.** 3.04 µM

**Q.** How did the TGI turn out when `COc1cc(/C=C2\N=C(C)N(n3c(-c4ccccc4)nc4ccccc4c3=O)C2=O)cc(OC)c1OC` was run?
**A.** > 100 µM

**Q.** Which TGI does the source give for `O=C1C2CC=CCC2C(=O)C12CCc1ccccc12` (stereo not drawn) here?
**A.** > 100 µM

**Q.** With `Cc1cc(Oc2cnc(=O)[nH]c2)cs1` as the molecule, how does the TGI read?
**A.** > 100 µM

**Q.** How did the GI50 turn out when `Cn1cc(-c2nc(-c3c[nH]c4ccncc34)cs2)c2cc(F)ccc21` was run?
**A.** 1.65 µM

**Q.** And the TGI?
**A.** 3.02 µM

**Q.** With `Cc1ccc(C(=O)N2CCN(C(=O)c3ccc(C)cc3)c3ccccc32)cc1` as the molecule, how does the TGI read?
**A.** > 100 µM

**Q.** Which TGI does the source give for `NC(=O)C[C@H](NC(=O)C1(NC(=O)[C@H](Cc2ccc(CP(=O)(O)O)cc2)NC(=O)C(=O)O)CCCCC1)C(=O)NCCCc1cccc2ccccc12` here?
**A.** > 10 µM

**Q.** How did the TGI turn out when `Cn1c(N=[N+]=[N-])cc(=O)n(C)c1=O` was run?
**A.** > 100 µM

**Q.** With `COc1ccc(-c2nnc(CCCCCCCCc3nnc(-c4ccc(OC)cc4)n3N)n2N)cc1` as the molecule, how does the TGI read?
**A.** > 100 µM

**Q.** `COC1=C2C[C@H](O)C(C)C[C@@]2(OC)OC1=O` (stereo partly drawn) was tested. Which TGI did it give?
**A.** > 100 µM

**Q.** For `NC(=O)C(=Cc1ccc(CP(=O)(O)O)cc1)C(N)=O`, which TGI is on record?
**A.** > 100 µM

**Q.** Which GI50 does the source give for `COc1ccc2c3c(c4ccccc4cc13)C(=O)N(CCN(C)CCN)C2=O` here?
**A.** 0.378 µM

**Q.** And the TGI?
**A.** 1.95 µM

**Q.** Which TGI does the source give for `CCOC(=O)c1cc2c(cn1)[nH]c1cccc(N)c12` here?
**A.** > 100 µM

**Q.** Which TGI does the source give for `CCOC(=O)C1=CC(C)(C(=O)OCC)Nc2c(nc(SC)n(C)c2=O)N1` (stereo not drawn) here?
**A.** > 10 µM
